The supplement of paper PMC4723716
± gives the uncertainty stated by the source. In all, about 9,900 compounds were measured (“viability index relative to DMSO control”: median about 1, lowest 2% from about 0.85 on). The list shows a part of the results.

These molecules were tested on Plasmodium falciparum NF54 stage V gametocytes (assay: viability index relative to DMSO control (fraction); higher = less gametocyte killing). Conditions: 2.5 µM, library set: Broad Institute DOS, incubation time: 72 h.
Protocol: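 Broad DOS informer set and blood-stage-active DOS compounds screened in duplicate at 2.5 µM against P. falciparum NF54 stage V gametocytes with the serum-free one-step SaLSSA (1536-well): 72 h at 37 °C under low oxygen, then saponin lysis and MitoTracker Red CMXRos staining, with high-content imaging. Viability index = viable-object count divided by the plate mean of DMSO wells (0 = killed, about 1 = inactive).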

| Compound | viability index |
| --- | --- |
| O=C(Cc1ccncc1)N1CCCCN2[C@H](CO)[C@H](c3ccc(C#Cc4ccccc4F)cc3)[C@H]2C1 | 1.02 ± 0.013 |
| O=C(Cc1ccncc1)N1CCCCN2[C@H](CO)[C@H](c3ccc(C#Cc4ccccc4F)cc3)[C@@H]2C1 | 0.9873 ± 0.0041 |
| COc1cccc(CN2CC3(C2)[C@H](c2ccccc2)[C@H](CO)N3C(=O)Cc2ccccc2)c1 | 1 ± 0.064 |
| COC(=O)[C@H]1[C@H](CO)[C@H]2Cn3c(ccc(-c4ccc(F)cc4)c3=O)[C@@H]1N2C(=O)c1ccccc1F | 1.06 ± 0.054 |
| CN(C)CC#Cc1ccc([C@@H]2[C@H](CO)N3CCCCN(C(=O)Cc4ccccn4)C[C@@H]23)cc1 | 0.951 ± 0.028 |
| C/C=C/c1ccc([C@H]2[C@@H]3CN(C(=O)CN(C)C)C[C@H]2N3)cc1 | 1.02 ± 0.012 |
| COC(=O)[C@@H]1[C@@H](CO)[C@@H]2Cn3c(ccc(-c4cccc(C(=O)N(C)C)c4)c3=O)[C@H]1N2C(=O)NC(C)C | 1.07 ± 0.068 |
| CCCNC(=O)N1[C@@H]2Cn3c(ccc(-c4ccccc4OC)c3=O)[C@H]1[C@@H](C(=O)OC)[C@@H]2CO | 1.068 ± 0.01 |
| C[C@H](CO)N1C[C@H](C)[C@@H](CN(C)C(=O)Oc2ccc3ccccc3c2)OCc2cn(nn2)CCCC1=O | 1.036 ± 0.0031 |
| CN1c2ccc(Br)cc2[C@H]2NCC[C@H]2[C@H]1CO | 1.095 ± 0.0031 |
| O=C(Cc1ccncc1)N1CCCCN2[C@H](CO)[C@@H](c3ccc(C#Cc4ccccc4F)cc3)[C@H]2C1 | 0.905 ± 0.07 |
| O=C(O)[C@@H]1[C@@H](CO)[C@@H]2Cn3c(ccc(-c4ccncc4)c3=O)[C@H]1N2S(=O)(=O)c1ccccc1F | 0.996 ± 0.044 |
| CN(C)CC#Cc1ccc([C@@H]2[C@H]3CN(C(=O)Cc4ccccn4)CCCCN3[C@H]2CO)cc1 | 1.03 ± 0.11 |
| C[C@@H]1CN([C@H](C)CO)C(=O)CCCn2cc(nn2)CO[C@H]1CN(C)C(=O)Oc1ccc2ccccc2c1 | 0.995 ± 0.059 |
| C[C@@H]1CN([C@@H](C)CO)C(=O)CCCn2cc(nn2)CO[C@H]1CN(C)C(=O)Oc1ccc2ccccc2c1 | 1.09 ± 0.029 |
| COc1cccc(-c2ccc([C@H]3[C@H](CO)N4CCCCN(C(=O)Cc5ccncc5)C[C@@H]34)cc2)c1 | 0.976 ± 0.028 |

| Compound | viability index |
| --- | --- |
| C[C@H]1CN([C@@H](C)CO)C(=O)CCCn2nncc2CO[C@@H]1CN(C)C(=O)Oc1cccc2ccccc12 | 0.965 ± 0.051 |
| C/C=C/c1ccc([C@H]2[C@@H]3CN(Cc4cncnc4)C[C@H]2N3)cc1 | 1.11 ± 0.064 |
| OC[C@@H]1Nc2ccc(C#Cc3cccnc3)cc2[C@@H]2NCC[C@H]12 | 1.21 ± 0.09 |
| C[C@@H]1CN([C@@H](C)CO)C(=O)CCCn2nncc2CO[C@@H]1CN(C)C(=O)Oc1cccc2ccccc12 | 1.04 ± 0.071 |
| COC(=O)[C@@H]1[C@@H](CO)[C@@H]2Cn3c(ccc(-c4ccc(F)cc4)c3=O)[C@H]1N2C(=O)c1ccccc1F | 1.08 ± 0.048 |
| O=C([C@@H]1N[C@@H]2c3cccc(=O)n3C[C@@H]2[C@H]1CO)N1CCCCC1 | 1.037 ± 0.003 |
| C/C=C/c1ccc([C@@H]2[C@@H]3CN(C(=O)CN(C)C)C[C@H]2N3)cc1 | 1.069 ± 0.0072 |
| CN(C)CC#Cc1ccc([C@@H]2[C@@H](CO)N3CCCCN(C(=O)Cc4ccccn4)C[C@@H]23)cc1 | 1.03 ± 0.026 |
| O=C1CNC[C@@H]2[C@@H](c3ccc(Br)cc3)[C@H](CO)N12 | 1 ± 0.0036 |
| C/C=C/c1ccc([C@@H]2[C@H]3CNC[C@@H]2N3CC2CC2)cc1 | 1.03 ± 0.025 |
| COc1ccccc1CN1[C@H](CO)[C@H](c2ccccc2)C12CN(C(=O)Cc1ccccc1)C2 | 1.1 ± 0.048 |
| O=C(Cc1ccncc1)N1CCCCN2[C@H](CO)[C@@H](c3ccc(C#Cc4ccccc4F)cc3)[C@@H]2C1 | 0.9619 ± 0.0014 |
| C[C@H](CO)N1C[C@H](C)[C@H](CN(C)C(=O)Oc2ccc3ccccc3c2)OCc2cn(nn2)CCCC1=O | 0.995 ± 0.045 |
| OC[C@H]1[C@@H]2c3ccccc3NC[C@@H]2N1Cc1cccnc1 | 0.941 ± 0.14 |
| O=C(O)C[C@H]1CC[C@@H]2NC[C@H](O)COC[C@H]2O1 | 1.06 ± 0.016 |
